Values quoted from earlier work, collected in patent US4652586A, “Selective beta-2 adrenergic antagonists for the treatment of glaucoma” (priority 1980, dated 1987).

Columns and labels:
lung adenylate cyclase = lung adenylate cyclase (Rattus norvegicus, UniProt P10608)
[1] = target: beta2 adrenergic receptor present in mammalian lung; settings: Table I column D; data from Minneman et al; read-out: Kd for IHYP Binding, Lung (D); cited from earlier work

Sequence of lung adenylate cyclase (P10608 whole entry): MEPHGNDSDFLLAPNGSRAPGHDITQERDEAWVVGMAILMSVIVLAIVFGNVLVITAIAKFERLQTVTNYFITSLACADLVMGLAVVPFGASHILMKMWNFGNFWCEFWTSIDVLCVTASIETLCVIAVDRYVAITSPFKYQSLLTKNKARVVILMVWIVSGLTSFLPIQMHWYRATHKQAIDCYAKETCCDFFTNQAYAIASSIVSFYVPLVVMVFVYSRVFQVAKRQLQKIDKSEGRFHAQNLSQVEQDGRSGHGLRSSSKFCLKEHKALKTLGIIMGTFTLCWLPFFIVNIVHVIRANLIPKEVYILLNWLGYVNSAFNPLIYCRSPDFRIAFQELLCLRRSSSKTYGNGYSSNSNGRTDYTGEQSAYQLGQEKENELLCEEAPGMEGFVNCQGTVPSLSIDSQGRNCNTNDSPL

Row | SMILES | Ki (lung adenylate cyclase; read-out: Adenylate Cyclase Ki, Lung (F); antagonists; Table I column F; data from Minneman et al; cited from earlier work) [nM] | Kd [1] [nM] | Ki (lung adenylate cyclase; antagonists; Table I column F; data from Minneman et al; read-out: Adenylate Cyclase Ki, Lung (F); cited from earlier work) [nM]
1 | Cc1ccc(C(O)C(C)NC(C)C)cc1 (centres unmarked) [H35/25, (1(4'-methyl phenyl)-2-isopropylaminopropanol)] | 850 | 840 | –
2 | CC(=O)Nc1ccc(OCC(O)CNC(C)C)cc1 (centres unmarked) [Practolol, practolol] | – | 26000 | –
3 | COc1ccc(OC)c(C(O)C(C)NC(C)(C)C)c1 (centres unmarked) [Butoxamine] | – | 3550 | 1350

Like-named read-outs stand apart in the source and are kept apart here.
